According to the supplement of paper PMC4604168 (melanoma cell lines):
This is one part of the list. Single values are uncertain, as repeats are few or missing.

Assays:
Assay in all cases: cell count relative to DMSO control; melanoma cells; higher = more viable cells
Conditions in all cases: library dose: standard library concentration; 72 h
G361 = tested on: G361
IPC-298 = tested on: IPC-298
IST-MEL1 = tested on: IST-MEL1
LB2518-MEL = tested on: LB2518-MEL
LOXIMVI = tested on: LOXIMVI
MEL-HO = tested on: MEL-HO
MZ2-MEL = tested on: MZ2-MEL
MeWo = tested on: MeWo
RPMI7951 = tested on: RPMI7951
RVH-421 = tested on: RVH-421
SkMel28 = tested on: SkMel28
SkMel2 = tested on: SkMel2
SkMel30 = tested on: SkMel30
SkMel5 = tested on: SkMel5
UACC257 = tested on: UACC257
UACC62 = tested on: UACC62
WM115 = tested on: WM115
WM1716 = tested on: WM1716
WM1745 = tested on: WM1745
WM3526 = tested on: WM3526
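Also: cells treated in 1,536-well plates, then fixed and DAPI-stained, with nuclei counted from automated high-throughput microscope images.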

Structure (SMILES)	cell count (G361) [%]	cell count (IPC-298) [%]	cell count (IST-MEL1) [%]	cell count (LB2518-MEL) [%]	cell count (LOXIMVI) [%]	cell count (MEL-HO) [%]	cell count (MZ2-MEL) [%]	cell count (MeWo) [%]	cell count (RPMI7951) [%]	cell count (RVH-421) [%]	cell count (SkMel28) [%]	cell count (SkMel2) [%]	cell count (SkMel30) [%]	cell count (SkMel5) [%]	cell count (UACC257) [%]	cell count (UACC62) [%]	cell count (WM115) [%]	cell count (WM1716) [%]	cell count (WM1745) [%]	cell count (WM3526) [%]
O=C(O)[C@@H]1[O][Sb](=[O])([O][Sb]2(=[O])[O][C@H]([C@H](O)CO)[C@H](O)[C@H](C(=O)O)[O]2)[O][C@H]([C@H](O)CO)[C@@H]1O (stereo not given in full) [stibogluconate] + COc1cc2c(Oc3ccc4[nH]c(C)cc4c3F)ncnc2cc1OCCCN1CCCC1 [cediranib] (first compound 10 µM, partner dose 2 µM)	68.4	95.5	84.4	88.4	72.4	100	98.6	62.1	78.5	96.4	93.4	81.2	91.5	62.5	94.4	81.7	70.4	85.2	59.3	71.2
O=C(O)[C@@H]1[O][Sb](=[O])([O][Sb]2(=[O])[O][C@H]([C@H](O)CO)[C@H](O)[C@H](C(=O)O)[O]2)[O][C@H]([C@H](O)CO)[C@@H]1O (stereo not given in full) [stibogluconate] + CNC(=O)c1cc(Oc2ccc(NC(=O)Nc3ccc(Cl)c(C(F)(F)F)c3)cc2)ccn1 [sorafenib] (first compound 10 µM, partner dose 2 µM)	78	83.5	96	84.8	146	77.4	86	81.6	96	107	63.3	87.9	95	66.9	94.9	107	80.4	105	59.6	61
O=C(Nc1cc(C(F)(F)F)cc(C(F)(F)F)c1)c1cc(Cl)ccc1O + CN(NC(=O)CC(=O)NN(C)C(=S)c1ccccc1)C(=S)c1ccccc1 [STA4783] (first compound 0.08 µM, partner dose 0.03 µM)	54.2	69.7	45.2	25.6	63.5	81.1	111	18.9	91.1	80.6	31.4	68.2	74.3	63.5	95.4	70.8	26.1	83.2	35.9	103
O=C(O)[C@@H]1[O][Sb](=[O])([O][Sb]2(=[O])[O][C@H]([C@H](O)CO)[C@H](O)[C@H](C(=O)O)[O]2)[O][C@H]([C@H](O)CO)[C@@H]1O (stereo not given in full) [stibogluconate] + CN(NC(=O)CC(=O)NN(C)C(=S)c1ccccc1)C(=S)c1ccccc1 [STA4783] (first compound 10 µM, partner dose 0.03 µM)	34.4	85.2	33.2	30	58.8	93.4	120	14.8	120	53.8	52	71.5	93.3	43.8	94.4	32.9	26.5	101	27.3	80.5
O=C(Nc1cc(C(F)(F)F)cc(C(F)(F)F)c1)c1cc(Cl)ccc1O + O=C(O)c1ccc2c(c1)nc(Nc1cccc(Cl)c1)c1ccncc12 [CX4945] (first compound 0.08 µM, partner dose 2 µM)	79.4	73.9	106	149	117	75.1	83.4	100	91.3	94	141	92.7	111	135	116	82.8	135	112	87.2	113
O=C(Nc1cc(C(F)(F)F)cc(C(F)(F)F)c1)c1cc(Cl)ccc1O + Clc1ccc(Nc2nnc(Cc3ccncc3)c3ccccc23)cc1 [vatalanib] (first compound 0.08 µM, partner dose 10 µM)	61.2	69.1	65.1	91.4	89.7	61.5	67.2	63.6	52.5	87.3	71.4	73.1	82.8	63.2	76.3	106	69.7	94.6	22.8	71.9
O=C(Nc1cc(C(F)(F)F)cc(C(F)(F)F)c1)c1cc(Cl)ccc1O + Cc1ccc(Nc2nccc(N(C)c3ccc4c(C)n(C)nc4c3)n2)cc1S(N)(=O)=O [Pazopanib] (first compound 0.08 µM, partner dose 2 µM)	83.2	73.1	83.7	90.5	140	85.8	78.5	87.6	86.1	72.4	99.9	136	89.9	81.6	75.5	86.4	82.6	104	79.8	75
O=C(Nc1cc(C(F)(F)F)cc(C(F)(F)F)c1)c1cc(Cl)ccc1O + COc1cc(Nc2ncc(F)c(Nc3ccc4c(n3)NC(=O)C(C)(C)O4)n2)cc(OC)c1OC [Tamatinib] (first compound 0.08 µM, partner dose 2 µM)	65.5	78.8	55.9	82	24.3	58.8	85.6	62.9	34.3	86.1	81.2	56.3	78	37.4	78.1	66.6	79.5	78.2	29.3	60.4
